Laboratory results as given in PubChem BioAssay AID1963576 (National Center for Advancing Translational Sciences (NCATS), 2024).
In all, about 46,000 compounds went through this assay and about 60 (0.1%) were called active. Another 3% or so got no clear call; they are omitted. Calls come from the whole dose curve; as a rule, active = well fitted inhibition curve with a large enough effect; inconclusive = small, poorly fitted or top-dose-only effect; inactive = no such curve, though single readings can be large or run the other way. The list shows a part of the results.

Assay: Primary qHTS assay for Inhibitors of ovarian cancer metastasis using an organotypic tumor microenvironment (TME) model.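 For activity change, negative = inhibition: plate controls were DMSO wells for no effect and tomatine positive control wells for full effect.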 Note: nearly all actives have a fitted effect of over 65% in size.
Conditions: SKOV3ip1-GFP adhesion/invasion on 3D omental model, fluorescence; series mostly up to 45.8 µM; activity change, negative = inhibition: at the top concentration
In short: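 A 3D layer of primary human omental fibroblasts, mesothelial cells, fibronectin and collagen I, grown 48 hr, received SKOV3ip1-GFP cells in serum-free medium plus compounds at 0.36-46 umol/L. After 2 hr RT and 16 hr 37 C, fixed adherent GFP cells were counted; normalized to DMSO and tomatine.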

| SMILES | activity change, negative = inhibition | outcome |
| --- | --- | --- |
| CN1CCN(c2ccc([N+](=O)[O-])c3no[n+]([O-])c23)CC1 | inactive: -3.77% |  |
| CCNC(=O)C[C@@H]1N=C(c2ccc(Cl)cc2)c2cc(OC)ccc2-n2c(C)nnc21 |  | inactive |
| COc1cc([C@@H]2c3cc4c(cc3[C@@H](O)C3COC(=O)C32)OCO4)cc(OC)c1O (stereo partly drawn) | inactive: 3.82% |  |
| Cc1cc(C)cc(OCC(=O)Nc2ccc(Cl)cc2C(=O)c2ccccc2)c1 | inactive: 4.53% |  |
| COc1ccc(OCC(=O)N2CCN(Cc3cccc(OC)c3OC)CC2)cc1 |  | inactive |
| COC(=O)c1ccc(NC(=O)c2cccn(Cc3ccccc3C)c2=O)cc1 | inactive: 4.42% |  |
| O=C(Nc1ccc(Br)cc1C(=O)c1ccccc1)c1ccccc1 | inactive: 13% |  |
| CC(=CCCC1=CCC(C2=CC(=O)OC2O)OC1O)CCC1=C(C)CCCC1(C)C (stereo not drawn) | inactive: -3.27% |  |
| C=C1C[C@H]2[C@H]3CCC(=O)[C@@]3(C)CC[C@@H]2[C@@]2(C)C=CC(=O)C=C12 | inactive: 9.92% |  |
| O=C(O)CNC(=O)c1c(O)c2ccccc2n(Cc2ccccc2)c1=O | inactive: -20.3% |  |
| Cc1ccc(OCC(=O)Nc2ccc(Cl)cc2C(=O)c2ccccc2)cc1 | inactive: -4.97% |  |
| Cc1c(C(=O)c2cccc3ccccc23)c2cccc3c2n1[C@H](CN1CCOCC1)CO3 | inactive: -14.9% |  |
| O=S1(=O)N(Cc2ccccc2)CCCN1Cc1ccc(F)cc1Cl | inactive: 2.28% |  |
| CN1CCN(c2oc(-c3ccc(COc4ccccc4)o3)nc2C#N)CC1 | inactive: -21% |  |
| C[C@]12CCC(=O)C=C1CC[C@@H]1[C@H]3CC[C@](C)(O)[C@@]3(C)CC[C@@H]12 | inactive: 0.789% [at 92.2 µM] |  |
| COc1cc(C(c2c(O)c3ccccc3oc2=O)c2c(C)n(C)n(-c3ccccc3)c2=O)ccc1O (stereo not drawn) | inactive: 21.5% |  |
| CCC(=O)OC1CCC2C3CCC4=CC(=O)CC[C@@]4(C)C3CC[C@]12C (stereo partly drawn) | inactive: 8.12% |  |
| N[C@@H](Cc1ccc(N(CCCl)CCCl)cc1)C(=O)O | inactive: 2.64% |  |
| Cc1nnc(NC(=O)c2cccn(Cc3cccc(Cl)c3)c2=O)s1 | inactive: 5.62% |  |
| O=c1c2ccccc2nc(/C=C/c2ccccc2)n1-c1ccccc1F | inactive: 9.65% |  |
| CCOC(=O)c1c(C(C#N)=CN)c2ccc(Cl)c(Cl)c2n1C | inactive: -22% |  |
| Cc1c(Cl)cccc1NC(=O)CN1C(=O)C(C)N=C(c2ccccc2)c2ccccc21 (stereo not drawn) | inactive: -0.276% |  |
| COc1cc(C(c2c(O)c3ccccc3oc2=O)c2c(C)n(C)n(-c3ccccc3)c2=O)ccc1OCC(=O)O (stereo not drawn) | inactive: 0.325% |  |
| O=C(Nc1ccc(Cl)cc1C(=O)c1ccccc1)c1ccccc1Br | inactive: -2.92% |  |
| Nc1c(C(=O)Nc2ccc(Br)cc2F)sc2nc3c(cc12)N1CCC3CC1 |  | inactive |

| SMILES | activity change, negative = inhibition | outcome |
| --- | --- | --- |
| Cc1cccc(-n2c(/C=C/c3c(C)[nH]c4ccccc34)nc3ccccc3c2=O)c1 | inactive: 2.93% |  |
| COc1ccccc1NC(=O)N(Cc1ccc2c(c1)OCO2)C1CCN(Cc2ccccc2)CC1 | inactive: -11% |  |
| CN(C)CCN(C)CCc1ccc(Cl)c(Cl)c1 | inactive: 1.64% |  |
| Nc1c(C(=O)Nc2ccc(Cl)cc2)sc2nc3c(cc12)N1CCC3CC1 | inactive: -14.9% |  |
| Cn1cc(/C=C/c2nc3ccccc3c(=O)n2-c2ccccc2)c2ccccc21 | inactive: -2.35% |  |
| O=C(Nc1ccc2c(c1)OCO2)c1cccn(Cc2cccc(F)c2)c1=O | inactive: -8.43% |  |
| COc1ccc(OC)c(NC(=O)Cn2cc(C(=O)c3ccccc3)c3ccccc32)c1 | inactive: -1.53% |  |
| O=C(Nc1ccc(Cl)cc1C(=O)c1ccccc1)c1cc(Cl)cc(Cl)c1 | inactive: -6.63% |  |
| NC1CC1c1ccccc1 (stereo not drawn) | inactive: -1.4% |  |
| CCOc1ccc2nc(NC(=O)c3cccn(Cc4ccccc4)c3=O)sc2c1 | inactive: 4.78% |  |
| CSc1ccc(CN2CCN(C(=O)COc3ccc(C)cc3)CC2)cc1 | inactive: -8.54% |  |
| CCc1ccccc1NC(=O)c1cccn(Cc2ccccc2F)c1=O | inactive: 13.3% |  |
| O=C(Nc1ccncc1)C(=O)c1cn(Cc2ccc(Cl)cc2)c2ccccc12 | inactive: -2.37% |  |
| O=C(Nc1ccc2c(c1)OCCO2)c1cccn(Cc2cccc(F)c2)c1=O | inactive: 0.523% |  |
| C#CC1(O)CCC2C3CCC4=CC(=O)CCC4(C)C3CCC21C (stereo not drawn) | inactive: -3.89% |  |
| COc1ccc(-c2nc(CN3C(=O)CN=C(c4ccccc4)c4cc(Cl)ccc43)c(C)o2)cc1 | inactive: 0.656% |  |
| CCOc1ccc2nc(NC(=O)c3cccn(Cc4ccc(Cl)cc4)c3=O)sc2c1 |  | inactive |
| COc1cccc(/C=C/c2nc3ccccc3c(=O)n2-c2ccc(Cl)cc2)c1OC | inactive: -20.9% |  |
| O=C(N[C@H]1CN2CCC1CC2)c1ccc(Cl)cc1 | inactive: -13.2% |  |
| CCCC12CN3CC(CCC)(CN(C1)C3c1ccccn1)C2=O (stereo not drawn) | inactive: 1.74% |  |
| CC(C)[C@H]1C(=O)N[C@H](CO)Cc2c[nH]c3cccc(c23)N1C | inactive: 2.09% |  |
| COc1ccc(C)cc1NC(=O)c1cccn(Cc2cccc([N+](=O)[O-])c2)c1=O | inactive: -2.92% |  |
| Cc1ccc(-n2c(/C=C/c3cccs3)nc3ccccc3c2=O)cc1C |  | inactive |
| CC(C)CC(N(C)C)C1(c2ccc(Cl)cc2)CCC1 (stereo not drawn) | inactive: -0.698% |  |
| CCOC(=O)c1ccc(NC(=O)c2cccn(Cc3ccc(C)cc3)c2=O)cc1 | inactive: 6.9% |  |

| SMILES | activity change, negative = inhibition | outcome |
| --- | --- | --- |
| C[C@]12Cc3cn[nH]c3C[C@@H]1CC[C@@H]1[C@H]2CC[C@@]2(C)[C@H]1CC[C@]2(C)O | inactive: -6.09% |  |
| Cc1ccc(Cn2cccc(C(=O)Nc3nnc(C)s3)c2=O)cc1 | inactive: 2.87% |  |
| CCN(CC)C(=O)c1ccc(NC(=O)Cn2nc(-c3ccc(C)cc3)c3ccccc3c2=O)cc1 | inactive: 5.81% |  |
| C[C@]12COC(=O)C[C@@H]1CC[C@@H]1[C@H]2CC[C@@]2(C)[C@H]1CC[C@]2(C)O | inactive: -1.01% |  |
| O=c1[nH]c2ccccc2n1CCCN1CCC(n2c(=O)[nH]c3cc(Cl)ccc32)CC1 | inactive: 13.7% |  |
| Cc1ccc(NC(=O)N(Cc2ccc3c(c2)OCO3)C2CCN(Cc3ccccc3)CC2)cc1Cl | inactive: -8.8% |  |
| N#Cc1cccc(NC(=O)CSc2nc3c(cc2C#N)N2CCC3CC2)c1 | inactive: 1.41% |  |
| Cc1nnc(NC(=O)c2cccn(Cc3cccc([N+](=O)[O-])c3)c2=O)s1 | inactive: 0.613% |  |
| COc1ccc(NC(C)=O)cc1NC(=O)c1cccn(Cc2ccccc2)c1=O | inactive: -8.24% |  |
| O=S(=O)(CC1CS1)c1ccc(Oc2ccccc2)cc1 (stereo not drawn) | inactive: -14.8% |  |
| CCOc1ccccc1CN(CCc1ccc2c(c1)OCO2)Cc1ccc(CC)cc1 |  | inactive |
| CSc1ncc(C(=O)Nc2ccc(Cl)cc2C(=O)c2ccccc2)c(C)n1 | inactive: 0.652% |  |
| Cc1ccccc1-n1c(/C=C/c2ccc(O)cc2)nc2ccccc2c1=O | inactive: -9.32% |  |
| CC(C)(C)c1ccc(OCC(=O)Nc2ccc(Cl)cc2C(=O)c2ccccc2)cc1 | inactive: -4.28% |  |
| CC(=O)N(C)c1cccc(-c2ccnc3c(C(=O)c4cccs4)cnn23)c1 | inactive: -8.26% |  |
| O=c1c2ccccc2nc(/C=C/c2ccccc2O)n1-c1ccc(Br)cc1 | inactive: -13.4% |  |
| Cc1ccc(-n2nc(C)c3c2NC(=O)CSC3c2ccc(O)cc2)cc1Cl (stereo not drawn) |  | inactive |
| CCCC12CN3CC(C)(CN(C1)C3c1ccccn1)C2=O (stereo not drawn) | inactive: -12.9% |  |
| O=C1CC(c2ccc(F)cc2)c2c(c3ccccc3oc2=O)O1 (stereo not drawn) |  | inactive |
| COc1ccc(CCNCc2ccc3c(c2)n(C)c(=O)n3C)cc1 | inactive: 3.57% |  |
| COCC1(CO)C(=O)C2CCN1CC2 (stereo not drawn) | inactive: -7.01% |  |
| O=C(Nc1ccc(Br)cc1C(=O)c1ccccc1Cl)c1ccccc1F | inactive: -5.61% |  |
| CC(C)(C)[C@]1(O)C[C@@H]2OC(=O)C[C@@]23C(=O)O[C@@H]2OC(=O)[C@H](O)C213 (stereo partly drawn) | inactive: -0.991% |  |
| N#Cc1cc2c(nc1SCC(=O)Nc1ccc(F)c(Cl)c1)C1CCN2CC1 |  | inactive |
| N#Cc1cccc(NC(=O)c2sc3nc4c(cc3c2N)N2CCC4CC2)c1 | inactive: -22.6% |  |

| SMILES | activity change, negative = inhibition | outcome |
| --- | --- | --- |
| Cc1oc(-c2ccccc2Cl)nc1CN1C(=O)CN=C(c2ccccc2)c2cc(Cl)ccc21 | inactive: 0.984% |  |
| COc1ccc(NC(=O)CCc2nc(C3=CCN(Cc4cccc(Cl)c4)CC3)no2)cc1OC |  | inactive |
| CCOc1ccc(NC(=O)c2cccn(Cc3cccc(Cl)c3)c2=O)cc1 |  | inactive |
| N#Cc1cc([N+](=O)[O-])ccc1NC(=O)c1cccn(Cc2cccc(F)c2)c1=O | inactive: -1.39% |  |
| O=C(Nc1ccc2c(c1)OCCO2)c1cccn(Cc2cccc([N+](=O)[O-])c2)c1=O | inactive: -4.78% |  |
| CCOc1ccc(-n2c(/C=C/c3ccccc3)nc3ccccc3c2=O)cc1 | inactive: -4.03% |  |
| N#Cc1cc2c(nc1SCC(=O)Nc1cccc(F)c1)C1CCN2CC1 |  | inactive |
| COC1=C[C@@H]2[C@@H]3Cc4ccc(OC)c(O)c4[C@]2(CCN3C)CC1=O | inactive: 24.4% |  |
| C[C@]12CC[C@H]3[C@@H](CCC4=CC(=O)CC[C@@]43C)[C@H]1CC[C@H]2O | inactive: -9.27% |  |
| CSc1ccc(C(c2c(O)c3ccccc3oc2=O)c2c(C)n(C)n(-c3ccccc3)c2=O)cc1 (stereo not drawn) | inactive: 7.08% |  |
| CN1CCN(c2csc3ccc(F)cc3c2=O)CC1 | inactive: 0.449% |  |
| CN(C)CCc1ccc(O)cc1 | inactive: 1.76% |  |
| O=C(c1ccc2c(c1)N(Cc1ccc(F)cc1Cl)C(=O)c1ccccc1S2)N1CCC2(CC1)OCCO2 | inactive: 4% |  |
| Cc1ccc(NC(=O)CN2C(=O)CN=C(c3ccccc3)c3ccccc32)c(C)c1 | inactive: -5.06% |  |
| Nc1c(C(=O)Nc2ccc(OC(F)(F)F)cc2)sc2nc3c(cc12)N1CCC3CC1 | inactive: -3.31% |  |
| COc1cc(/C=C/c2nc3ccccc3c(=O)n2-c2ccc(Br)c(C)c2)ccc1O |  | inactive |
| CCCCc1nc2ccccc2c(=O)n1-c1cccc(OC)c1 | inactive: 0.106% |  |
| COc1ccccc1-n1c(/C=C/c2ccccc2)nc2ccccc2c1=O |  | inactive |
| Cn1c(CCCC(=O)O)nc2cc(N(CCCl)CCCl)ccc21 | inactive: -18.8% |  |
| COc1ccc(-c2nc(CN3C(=O)CN=C(c4ccccc4)c4ccccc43)c(C)o2)cc1OC | inactive: -5.84% |  |
| CCc1ccc(OCC(=O)N2CCN(CCc3ccccn3)CC2)cc1 | inactive: -3.79% |  |
| C[C@@H]1[C@@H](CC(C[C@H]2O[C@@H]3O[C@]4(C)CC[C@@H]5[C@H](C)CC[C@@H]([C@H]2C)[C@@]35OO4)C[S+](=O)([O-])c2ccc(COC(=O)N(C)C)cc2)O[C@@H]2O[C@]3(C)CC[C@H]4[C@H](C)CC[C@@H]1[C@@]24OO3 (stereo partly drawn) | inactive: -4.82% |  |
| Cc1oc(-c2ccc(Cl)cc2)nc1CN1C(=O)CN=C(c2ccccc2)c2cc(Cl)ccc21 | inactive: -5.47% |  |
